The results in this text go back to the supplement of paper PMC12217912.

B1: TEV protease; numbered along this chain (parent)
chain: MGESLFKGPRDYNPISSSICHLTNESDGHTTSLYGIGFGPFIITNKHLFRRNNGTLVVQSLHGVFKVKDTTTLQQHLVDGRDMIIIRMPKDFPPFPQKLKFREPQREERICLVTTNFQTKSMSSMVSDTSCTFPSGDGIFWKHWIQTKDGQCGSPLVSTRDGFIVGIHSASNFTNTNNYFTSVPKNFMELLTNQEAQQWVSGWRLNADSVLWGGHKVFMVKPEEPFQPVKEATQL

This assay covers variants of B1. Nature of the assay: raw area under fraction-flipped curve 0-4 h after induction (AUC4h, not background-subtracted), DNA-recorder readout of cleavage of the substrate (dimensionless); higher = more cleavage of the substrate by the protease variant. To be noted: temperature: 34 °C; time window: 0-4 h after rhamnose induction. Here is the method:
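In vivo DNA recorder in E. coli TOP10(DE3) ΔrhaA at 34 °C. Each TEVp single-site mutant (parent TEVp 0) is paired with a single-site variant of the 7-mer TEVs (canonical ENLYFQ|S). The substrate sits between flexible linkers in a Bxb1-sfGFP-TEVs-SsrA fusion, so cleavage stabilises Bxb1 and speeds flipping of a recombination array, read by NGS. The value is the raw area under the fraction-flipped curve over 0-4 h after rhamnose induction (AUC4h), with ≥20 reads per time point. It is not background-subtracted; inactive controls average about 0.047.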

Some of the results follow. Sequences were assembled here from the parent chain. Inactive controls read about 0.05.
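Note: Bxb1 expression induced with 0.2% (w/v) L-rhamnose at OD600 near 0.5, cultures sampled hourly, flipped fraction per protease–substrate barcode pair counted by paired-end Illumina sequencing.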

Turning to MGESLFKGPRDYNPISSSICHLTNESDGHTTSLYGIGFGPFIITNKHLFRRNNGTLVVQSLHGVFKVKDTTTLQQHLVDGRDMIIIRMPKDFPPFPQKLKFREPQREERICLVTTNFQTKSMSSMVSDTSCTFPSGDGIFWKHWIQTKDGQCGSPLVSTRDGFIVGIHSASNFTNTNNYFTSVPKNFMELLTNQEAQQWVSGWRLNADSVLWGVHKVFMVKPEEPFQPVKEATQL [G214V], the “area with substrate ENLYAQS” value worked out at 0.0697, the “area with substrate ENLYDQS” value was 0.065, the “area with substrate ENLYEQS” value was found to be 0.0572 and the “area with substrate ENLYGQS” value came out at 0.0538. Moreover, the “area with substrate ENLYIQS” value turned out to be 0.0627, the “area with substrate ENLYKQS” value came to 0.0528, the “area with substrate ENLYMQS” value worked out at 0.059 and the “area with substrate ENLYNQS” value is 0.0622. Moreover, the “area with substrate ENLYQQS” value turned out to be 0.0681, the “area with substrate ENLYRQS” value turned out to be 0.0499, the “area with substrate ENLYTQS” value came out at 0.0751 and the “area with substrate ENLYVQS” value was 0.104. In addition, the “area with substrate ENLYWQS” value amounted to 0.0662.
Take MGESLFKGPRDYNPISSSICHLTNESDGHTTSLYGIGFGPFIITNKHLFRRNNGTLVVQSLHGVFKVKDTTTLQQHLVDGRDMIIIRMPKDFPPFPQKLKFREPQREERICLVTTNFQTKSMSSMVSDTSCTFPSGDGIFWKHWIQTKDGQCGSPLVSTRDGFIVGIHSASNFTNTNNYFTSVPKNFMELLTNQEAQQWVSGWRLNADSVLWAGHKVFMVKPEEPFQPVKEATQL [G213A]: the “area with substrate ENLYAQS” value amounted to 0.0615, the “area with substrate ENLYCQS” value turned out to be 0.0441, the “area with substrate ENLYDQS” value is 0.0696 and the “area with substrate ENLYEQS” value amounted to 0.0581. Also, the “area with substrate ENLYGQS” value came to 0.0644, the “area with substrate ENLYHQS” value worked out at 0.0616, the “area with substrate ENLYIQS” value came out at 0.0747 and the “area with substrate ENLYKQS” value worked out at 0.0333. Further, the “area with substrate ENLYMQS” value came to 0.0518, the “area with substrate ENLYNQS” value is 0.0612, the “area with substrate ENLYPQS” value was determined as 0.0526 and the “area with substrate ENLYQQS” value was 0.0603. Moreover, the “area with substrate ENLYRQS” value was determined as 0.0635, the “area with substrate ENLYSQS” value is 0.0622, the “area with substrate ENLYTQS” value was 0.0623 and the “area with substrate ENLYVQS” value was 0.0781. The “area with substrate ENLYWQS” value came out at 0.0578.
As for MGESLFKGPRDYNPISSSICHLTNESDGHTTSLYGIGFGPFIITNKHLFRRNNGTLVVQSLHGVFKVKDTTTLQQHLVDGRDMIIIRMPKDFPPFPQKLKFREPQREERICLVTTNFQTKSMSSMVSDTSCTFPSGDGIFWKHWIQTKDGQCGSPLVSTRDGFIVGIHSASNFTNTNNYFTSVPKNFMELLTNQEAQQWVSGWRLNADSVLWYGHKVFMVKPEEPFQPVKEATQL [G213Y], the “area with substrate ENLYAQS” value came out at 0.0693, the “area with substrate ENLYDQS” value is 0.0737, the “area with substrate ENLYGQS” value was determined as 0.0432 and the “area with substrate ENLYHQS” value came to 0.0515. The “area with substrate ENLYKQS” value was 0.058, the “area with substrate ENLYLQS” value was determined as 0.0582, the “area with substrate ENLYNQS” value was 0.0651 and the “area with substrate ENLYPQS” value was found to be 0.0594. Moreover, the “area with substrate ENLYQQS” value is 0.0517, the “area with substrate ENLYRQS” value amounted to 0.0714, the “area with substrate ENLYSQS” value is 0.057 and the “area with substrate ENLYVQS” value was 0.0353. Moreover, the “area with substrate ENLYWQS” value turned out to be 0.0496 and the “area with substrate ENLYYQS” value was 0.0561.
Consider MGESLFKGPRDYNPISSSICHLTNESDGHTTSLYGIGFGPFIITNKHLFRRNNGTLVVQSLHGVFKVKDTTTLQQHLVDGRDMIIIRMPKDFPPFPQKLKFREPQREERICLVTTNFQTKSMSSMVSDTSCTFPSGDGIFWKHWIQTKDGQCGSPLVSTRDGFIVGIHSASNFTNTNNYFTSVPKNFMELLTNQEAQQWVSGWRFNADSVLWGGHKVFMVKPEEPFQPVKEATQL [L205F], for which the “area with substrate ENLYAQS” value was 0.0688, the “area with substrate ENLYDQS” value was 0.0479, the “area with substrate ENLYEQS” value is 0.0623 and the “area with substrate ENLYGQS” value was 0.0701. Further, the “area with substrate ENLYIQS” value is 0.0998, the “area with substrate ENLYNQS” value amounted to 0.0675, the “area with substrate ENLYVQS” value turned out to be 0.109 and the “area with substrate ENLYWQS” value is 0.0824. The “area with substrate ENLYYQS” value turned out to be 0.0716.
Take MGESLFKGPRDYNPISSSICHLTNESDGHTTSLYGIGFGPFIITNKHLFRRNNGTLVVQSLHGVFKVKDTTTLQQHLVDGRDMIIIRMPKDFPPFPQKLKFREPQREERICLVTTNFQTKSMSSMVSDTSCTFPSGDGIFWKHWIQTKDGQCGSPLVSTRDGFIVGIHSASNFTNTNNYFTSVPKNFMVLLTNQEAQQWVSGWRLNADSVLWGGHKVFMVKPEEPFQPVKEATQL [E189V]: the “area with substrate ENLYAQS” value stood at 0.074, the “area with substrate ENLYCQS” value is 0.0408, the “area with substrate ENLYDQS” value came to 0.0531 and the “area with substrate ENLYEQS” value worked out at 0.0592. The “area with substrate ENLYHQS” value came to 0.0661, the “area with substrate ENLYIQS” value came to 0.124, the “area with substrate ENLYKQS” value was 0.0255 and the “area with substrate ENLYLQS” value was found to be 0.0584. In addition, the “area with substrate ENLYNQS” value was found to be 0.0745, the “area with substrate ENLYPQS” value was found to be 0.0638, the “area with substrate ENLYRQS” value is 0.0582 and the “area with substrate ENLYSQS” value came out at 0.074. Besides, the “area with substrate ENLYVQS” value was determined as 0.0802, the “area with substrate ENLYWQS” value stood at 0.0727 and the “area with substrate ENLYYQS” value amounted to 0.0559.
Consider MGESLFKGPRDYNPISSSICHLTNESDGHTTSLYGIGFGPFIITNKHLFRRNNGTLVVQSLHGVFKVKDTTTLQQHLVDGRDMIIIRMPKDFPPFPQKLKFREPQREERICLVTTNFQTKSMSSMVSDTSCTFPSGDGIFWKHWIQTKDGQCGSPLVSTRDGFIVGIHSASNFTNTNNYFTSVPKNFMELLPNQEAQQWVSGWRLNADSVLWGGHKVFMVKPEEPFQPVKEATQL [T192P], for which the “area with substrate ENLYAQS” value came out at 0.0701, the “area with substrate ENLYDQS” value worked out at 0.0605, the “area with substrate ENLYEQS” value is 0.0664 and the “area with substrate ENLYGQS” value worked out at 0.0562. The “area with substrate ENLYHQS” value amounted to 0.0643, the “area with substrate ENLYIQS” value was 0.0709, the “area with substrate ENLYKQS” value turned out to be 0.0624 and the “area with substrate ENLYLQS” value worked out at 0.0559. The “area with substrate ENLYMQS” value is 0.0551, the “area with substrate ENLYNQS” value worked out at 0.0626, the “area with substrate ENLYPQS” value worked out at 0.0642 and the “area with substrate ENLYQQS” value was found to be 0.0749. The “area with substrate ENLYSQS” value is 0.0563, the “area with substrate ENLYVQS” value is 0.0323, the “area with substrate ENLYWQS” value came to 0.0485 and the “area with substrate ENLYYQS” value was 0.044.
As to MGESLFKGPRDYNPISSSICHLTNESDGHTTSLYGIGFGPFIITNKHLFRRNNGTLVVQSLHGVFKVKDTTTLQQHLVDGRDMIIIRMPKDFPPFPQKLKFREPQREERICLVTTNFQTKSMSSMVSDTSCTFPSGDGIFWKHWIQTKDGQCGSPLVSTRDGFIVGIHSASNFTNTNNYFTSVPKNFMELLTNQEAQQWVSGWRLNADSVLWGGHKHFMVKPEEPFQPVKEATQL [V217H], the “area with substrate ENLYAQS” value came out at 0.0111, the “area with substrate ENLYDQS” value turned out to be 0.0647, the “area with substrate ENLYEQS” value was found to be 0.0907 and the “area with substrate ENLYGQS” value amounted to 0.0625. Moreover, the “area with substrate ENLYHQS” value turned out to be 0.0583, the “area with substrate ENLYIQS” value came out at 0.0482, the “area with substrate ENLYKQS” value came to 0.0588 and the “area with substrate ENLYLQS” value amounted to 0.0409. The “area with substrate ENLYMQS” value was 0.0849, the “area with substrate ENLYPQS” value came out at 0.0661, the “area with substrate ENLYQQS” value was 0.056 and the “area with substrate ENLYRQS” value worked out at 0.0578. The “area with substrate ENLYSQS” value is 0.0615, the “area with substrate ENLYWQS” value worked out at 0.0485 and the “area with substrate ENLYYQS” value was found to be 0.0544.
Consider MGESLFKGPRDYNPISSSICHLTNESDGHTTSLYGIGFGPFIITNKHLFRRNNGTLVVQSLHGVFKVKDTTTLQQHLVDGRDMIIIRMPKDFPPFPQKLKFREPQREERICLVTTNFQTKSMSSMVSDTSCTFPSGDGIFWKHWIQTKDGQCGSPLVSTRDGFIVGIHSASNFTNTNNYFTSVPKNFMELLTNQEAQQWVSGWRLNADSVLWGGGKVFMVKPEEPFQPVKEATQL [H215G], for which the “area with substrate ENLYAQS” value was found to be 0.0428, the “area with substrate ENLYDQS” value is 0.0622, the “area with substrate ENLYEQS” value stood at 0.07 and the “area with substrate ENLYGQS” value was 0.0623. Also, the “area with substrate ENLYIQS” value stood at 0.0674, the “area with substrate ENLYLQS” value amounted to 0.0911, the “area with substrate ENLYMQS” value was 0.0534 and the “area with substrate ENLYNQS” value turned out to be 0.0593. Also, the “area with substrate ENLYPQS” value is 0.0581, the “area with substrate ENLYQQS” value stood at 0.0613, the “area with substrate ENLYRQS” value was 0.0622 and the “area with substrate ENLYSQS” value came to 0.058. The “area with substrate ENLYTQS” value came out at 0.0566, the “area with substrate ENLYVQS” value worked out at 0.0631, the “area with substrate ENLYWQS” value worked out at 0.0662 and the “area with substrate ENLYYQS” value was 0.0546.
